The other results are listed elsewhere or left out. Many values rest on one well or one pass, so single values are uncertain.
Each molecule was assayed on A549 (assay: cell-surface PD-L1 MFI ratio relative to cisplatin alone (isotype-subtracted); higher = higher PD-L1 surface expression). Conditions: inducer: cisplatin 4 uM; 10 µM; 24 h.
Protocol: (§1)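 A549 and H460 NSCLC cells were treated with each library drug at 10 uM, then with radiation (8 Gy) or cisplatin (4 uM), and incubated for 24 h. Cell-surface PD-L1 was measured by flow cytometry as an MFI ratio: (MFI drug+inducer - MFI isotype)/(MFI inducer alone - MFI isotype). Hits were defined as ratio < 0.75.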

Structure (SMILES) | cell-surface PD-L1 MFI ratio
Nc1cccc(-c2cc3c(Oc4cccc(O)c4)ncnc3[nH]2)c1 | inactive: 1.28
CN(C)C(=N)NC(=N)N [Metformin] | active: 0.636
COc1ccc(Oc2cc(NCCC(F)(F)F)c3ncc(-c4ccc(C(=O)NC5CC5)c(C)c4)n3n2)c(F)c1F | inactive: 0.802
Oc1nc(-c2ccc(C(F)(F)F)cc2)nc2c1CSCC2 | active: 0.603
C=CC(=O)N1CCC([C@@H]2CCNc3c(C(N)=O)c(-c4ccc(Oc5ccccc5)cc4)nn32)CC1 [Zanubrutinib] | inactive: 1.2
Nc1ccccc1NC(=O)c1ccc(CNC(=O)OCc2cccnc2)cc1 [Entinostat (MS-275)] | inactive: 1.7
OCC1OC(O)CC(O)C1O [2-Deoxy-D-glucose] | inactive: 0.867

What follows are molecules tested on NCI-H460 in the same assay as above. Conditions: inducer: cisplatin 4 uM; 10 µM; 24 h.
Protocol: as §1

Structure (SMILES) | cell-surface PD-L1 MFI ratio
CC1(C)CCC(c2ccc(Cl)cc2)=C(CN2CCN(c3ccc(C(=O)NS(=O)(=O)c4ccc(N[C@H](CCN5CCOCC5)CSc5ccccc5)c(S(=O)(=O)C(F)(F)F)c4)cc3)CC2)C1 [Navitoclax (ABT-263)] | active: 0.625
CC1(C)[C@@H](O[C@H]2O[C@H](C(=O)O)[C@@H](O)[C@H](O)[C@H]2O[C@@H]2O[C@H](C(=O)O)[C@@H](O)[C@H](O)[C@H]2O)CC[C@]2(C)[C@H]3C(=O)C=C4[C@@H]5C[C@@](C)(C(=O)O)CC[C@]5(C)CC[C@@]4(C)[C@]3(C)CC[C@@H]12 [Glycyrrhizin (Glycyrrhizic Acid)] | inactive: 1.39
CN(C)c1cccc(-c2c3c(=O)n(-c4ccccc4Cl)[nH]c3cc(=O)n2C)c1 | inactive: 1.34
CN1CCN(Cc2ccc(-c3cnc4[nH]cc(-c5ccc6[nH]ccc6c5)c4c3)cc2)CC1 | inactive: 0.84
CCCc1cc(C)[nH]c(=O)c1CNC(=O)c1cc(-c2ccc(N3CCN(C(C)C)CC3)nc2)cc2c1cnn2C(C)C | active: 0.614
NC(=O)c1ncn([C@@H]2O[C@H](CO)[C@@H](O)[C@H]2O)c1N [AICAR (Acadesine)] | inactive: 1.09
C/C(=C\C(=O)Nc1ccccc1C(=O)O)c1ccc2ccccc2c1 | inactive: 1.07
O=C([C@@H](Cc1cccc(C(F)(F)F)c1)NS(=O)(=O)c1cc(F)c2c(c1)CCNC2)N1CCCC1 | active: 0.55
Cc1[nH]c(/C=C2\C(=O)Nc3ccc(S(=O)(=O)Cc4c(Cl)cccc4Cl)cc32)c(C)c1C(=O)N1CCC[C@@H]1CN1CCCC1 | inactive: 34.5
CC(C)N1CCN(Cc2cnc(-c3cc(-c4cccc5[nH]ccc45)cc4[nH]ncc34)o2)CC1 | inactive: 1.06
CCc1cnn2c(NCc3ccc[n+]([O-])c3)cc(N3CCCC[C@H]3CCO)nc12 | active: 0.689
N#Cc1ccc2ncnc(NCCc3ccccc3)c2c1 [Senexin A] | inactive: 0.888
Nc1cccc(-c2cc3c(Oc4cccc(O)c4)ncnc3[nH]2)c1 | inactive: 1.31
O=C(Nc1ccc2[nH]nc(-c3ccncc3)c2c1)[C@@H]1CCN(CC(=O)N2CCN(c3ccc(-c4ncccn4)cc3)CC2)C1 | inactive: 0.912
CN(C)C(=N)NC(=N)N [Metformin] | inactive: 1.14
O=C1CCc2c(Oc3ccc4c(c3)[C@@H]3[C@H](O4)[C@H]3c3nc4cc(C(F)(F)F)ccc4[nH]3)ccnc2N1 [Lifirafenib (BGB-283)] | inactive: 0.84
C[C@]1(c2nc3c(C(N)=O)cccc3[nH]2)CCCN1 [Veliparib (ABT-888)] | active: 0.636
COc1ccc(Oc2cc(NCCC(F)(F)F)c3ncc(-c4ccc(C(=O)NC5CC5)c(C)c4)n3n2)c(F)c1F | active: 0.632
CC(=O)Oc1ccccc1C(=O)O [Aspirin] | inactive: 1.35
CC1(C)CCC(CN2CCN(c3ccc(C(=O)NS(=O)(=O)c4ccc(NCC5CCOCC5)c([N+](=O)[O-])c4)c(Oc4cnc5[nH]ccc5c4)c3)CC2)=C(c2ccc(Cl)cc2)C1 [Venetoclax (ABT-199, GDC-0199)] | inactive: 1.06
O=C(Nc1cccc2cccnc12)c1ccc(N2C(=O)[C@@H]3[C@H](C2=O)[C@@H]2C=C[C@H]3C2)cc1 [IWR-1-endo] | inactive: 1.06
Oc1nc(-c2ccc(C(F)(F)F)cc2)nc2c1CSCC2 | inactive: 0.799
CC(C)c1c(C(=O)Nc2ccccc2)c(-c2ccccc2)c(-c2ccc(F)cc2)n1CC[C@@H](O)C[C@@H](O)CC(=O)O [Atorvastatin] | inactive: 0.976

From the supplement of paper PMC8792480
